# Laboratory results reported in the supplement of paper PMC8728848.
# Some of the results follow.
# Experiments:
# Test in all cases: glycan array binding signal (z-score within array); higher = stronger binding
# Conditions in all cases: glycan notation: IUPAC condensed, linker removed
# [1] = target: Gal(b1-4)GlcNAc(b1-3)Gal(b1-4)GlcNAc(b1-3)Gal(b1-4)GlcNAc(b1-3)Gal(b1-4)GlcNAc(b1-2)Man(a1-3)[Gal(b1-4)GlcNAc(b1-3)Gal(b1-4)GlcNAc(b1-3)Gal(b1-4)GlcNAc(b1-3)Gal(b1-4)GlcNAc(b1-2)Man(a1-6)]Man(b1-4)GlcNAc(b1-4)[Fuc(a1-6)]GlcNAc
# How it was run: (§1)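 From the Consortium for Functional Glycomics database, 3228 arrays were curated, keeping only those whose protein sequence was available. Binding is given as a within-array Z-score averaged across arrays sharing a protein sequence and across linkers. Negative Z-scores can be read as non-binding.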
# [2] = target: Gal(b1-4)GlcNAc(b1-3)Gal(b1-4)GlcNAc(b1-3)Gal(b1-4)GlcNAc(b1-3)Gal(b1-4)GlcNAc(b1-2)[Gal(b1-4)GlcNAc(b1-3)Gal(b1-4)GlcNAc(b1-3)Gal(b1-4)GlcNAc(b1-3)Gal(b1-4)GlcNAc(b1-6)]Man(a1-6)[Gal(b1-4)GlcNAc(b1-3)Gal(b1-4)GlcNAc(b1-3)Gal(b1-4)GlcNAc(b1-3)Gal(b1-4)GlcNAc(b1-2)Man(a1-3)]Man(b1-4)GlcNAc(b1-4)[Fuc(a1-6)]GlcNAc
# How it was run: as §1
# [3] = target: Gal(b1-4)GlcNAc(b1-3)Gal(b1-4)GlcNAc(b1-3)Gal(b1-4)GlcNAc(b1-3)Gal(b1-4)GlcNAc(b1-3)Gal(b1-4)GlcNAc(b1-2)Man(a1-3)[Gal(b1-4)GlcNAc(b1-3)Gal(b1-4)GlcNAc(b1-3)Gal(b1-4)GlcNAc(b1-3)Gal(b1-4)GlcNAc(b1-3)Gal(b1-4)GlcNAc(b1-2)Man(a1-6)]Man(b1-4)GlcNAc(b1-4)GlcNAc
# How it was run: as §1
# [4] = target: Gal(b1-4)GlcNAc(b1-3)Gal(b1-4)GlcNAc(b1-3)Gal(b1-4)GlcNAc(b1-3)Gal(b1-4)GlcNAc(b1-3)Gal(b1-4)GlcNAc(b1-2)Man(a1-3)[Gal(b1-4)GlcNAc(b1-3)Gal(b1-4)GlcNAc(b1-3)Gal(b1-4)GlcNAc(b1-3)Gal(b1-4)GlcNAc(b1-3)Gal(b1-4)GlcNAc(b1-2)Man(a1-6)]Man(b1-4)GlcNAc(b1-4)[Fuc(a1-6)]GlcNAc
# How it was run: as §1
# [5] = target: Gal(b1-4)GlcNAc(b1-3)Gal(b1-4)GlcNAc(b1-3)Gal(b1-4)GlcNAc(b1-3)Gal(b1-4)GlcNAc(b1-3)Gal(b1-4)GlcNAc(b1-2)[Gal(b1-4)GlcNAc(b1-3)Gal(b1-4)GlcNAc(b1-3)Gal(b1-4)GlcNAc(b1-3)Gal(b1-4)GlcNAc(b1-3)Gal(b1-4)GlcNAc(b1-6)]Man(a1-6)[Gal(b1-4)GlcNAc(b1-3)Gal(b1-4)GlcNAc(b1-3)Gal(b1-4)GlcNAc(b1-3)Gal(b1-4)GlcNAc(b1-3)Gal(b1-4)GlcNAc(b1-2)Man(a1-3)]Man(b1-4)GlcNAc(b1-4)[Fuc(a1-6)]GlcNAc
# How it was run: as §1
# [6] = target: Gal(b1-4)GlcNAc(b1-3)Gal(b1-4)GlcNAc(b1-3)Gal(b1-4)GlcNAc(b1-3)Gal(b1-4)GlcNAc(b1-3)Gal(b1-4)GlcNAc(b1-3)Gal(b1-4)GlcNAc(b1-2)Man(a1-3)[Gal(b1-4)GlcNAc(b1-3)Gal(b1-4)GlcNAc(b1-3)Gal(b1-4)GlcNAc(b1-3)Gal(b1-4)GlcNAc(b1-3)Gal(b1-4)GlcNAc(b1-3)Gal(b1-4)GlcNAc(b1-2)Man(a1-6)]Man(b1-4)GlcNAc(b1-4)GlcNAc
# How it was run: as §1
# [7] = target: Gal(b1-4)GlcNAc(b1-3)Gal(b1-4)GlcNAc(b1-3)GalNAc
# How it was run: as §1
# [8] = target: Gal(b1-4)GlcNAc(b1-3)Gal(b1-4)GlcNAc(b1-3)[Gal(b1-4)GlcNAc(b1-3)Gal(b1-4)GlcNAc(b1-6)]GalNAc
# How it was run: as §1
# [9] = target: Gal(b1-4)GlcNAc(b1-3)Gal(b1-4)GlcNAc(b1-6)[Gal(b1-3)]GalNAc
# How it was run: as §1
# [10] = target: Gal(b1-4)GlcNAc(b1-3)Gal(b1-4)[Fuc(a1-3)GlcNAc(b1-6)]Gal(b1-4)Glc
# How it was run: as §1
# [11] = target: Gal(b1-4)GlcNAc(b1-3)Gal(b1-4)[Fuc(a1-3)]GlcNAc(b1-3)Gal(b1-4)[Fuc(a1-3)]GlcNAc
# How it was run: as §1
# [12] = target: Gal(b1-4)GlcNAc(b1-3)GalNAc
# How it was run: as §1
# [13] = target: Gal(b1-4)GlcNAc(b1-3)[Fuc(a1-3)GlcNAc(b1-6)]Gal(b1-4)Glc
# How it was run: as §1
# [14] = target: Gal(b1-4)GlcNAc(b1-3)[Gal(b1-4)GlcNAc(b1-6)]Gal(b1-4)GlcNAc
# How it was run: as §1
# [15] = target: Gal(b1-4)GlcNAc(b1-3)[GlcNAc(b1-6)]Gal(b1-4)GlcNAc
# How it was run: as §1
# [16] = target: Gal(b1-4)GlcNAc(b1-6)Gal(b1-4)GlcNAc
# How it was run: as §1
# [17] = target: Gal(b1-4)GlcNAc(b1-6)Gal(b1-4)GlcNAc(b1-6)GalNAc
# How it was run: as §1
# [18] = target: Gal(b1-4)GlcNAc(b1-6)GalNAc
# How it was run: as §1
# [19] = target: Gal(b1-4)GlcNAc(b1-6)[Gal(b1-3)]GalNAc
# How it was run: as §1
# [20] = target: Gal(b1-4)GlcNAc(b1-6)[Gal(b1-4)GlcNAc(b1-3)]GalNAc
# How it was run: as §1
# [21] = target: Gal(b1-4)GlcNAc6P
# How it was run: as §1
# [22] = target: Gal(b1-6)Gal
# How it was run: as §1
# [23] = target: Gal3S(b1-3)GalNAc
# How it was run: as §1
binder,measurement,setting,value
"LSECtin (Homo sapiens), Q6UXB4 (protein) MDTTRYSKWGGSSEEVPGGPWGRWVHWSRRPLFLALAVLVTTVLWAVILSILLSKASTERAALLDGHDLLRTNASKQTAALGALKEEVGDCHSCCSGTQAQLQTTRAELGEAQAKLMEQESALRELRERVTQGLAEAGRGREDVRTELFRALEAVRLQNNSCEPCPTSWLSFEGSCYFFSVPKTTWAAAQDHCADASAHLVIVGGLDEQGFLTRNTRGRGYWLGLRAVRHLGKVQGYQWVDGVSLSFSHWNQGEPNDAWGRENCVMMLHTGLWNDAPCDSEKDGWICEKRHNC",glycan array binding signal (z-score),[1],-0.123
same,glycan array binding signal (z-score),[2],-0.121
same,glycan array binding signal (z-score),[3],-0.138
same,glycan array binding signal (z-score),[4],-0.115
same,glycan array binding signal (z-score),[5],-0.124
same,glycan array binding signal (z-score),[6],-0.131
same,glycan array binding signal (z-score),[7],-0.131
same,glycan array binding signal (z-score),[8],-0.125
same,glycan array binding signal (z-score),[9],-0.118
same,glycan array binding signal (z-score),[10],-0.143
same,glycan array binding signal (z-score),[11],-0.184
same,glycan array binding signal (z-score),[12],-0.146
same,glycan array binding signal (z-score),[13],-0.124
same,glycan array binding signal (z-score),[14],-0.186
same,glycan array binding signal (z-score),[15],-0.249
same,glycan array binding signal (z-score),[16],-0.219
same,glycan array binding signal (z-score),[17],0.855
same,glycan array binding signal (z-score),[18],-0.14
same,glycan array binding signal (z-score),[19],-0.126
same,glycan array binding signal (z-score),[20],-0.129
same,glycan array binding signal (z-score),[21],-0.133
same,glycan array binding signal (z-score),[22],-0.14
same,glycan array binding signal (z-score),[23],-0.211
